Experimental data: PubChem BioAssay AID463173 (ICCB-Longwood Screening Facility, Harvard Medical School, 2010)
Hit rate of the full screen: of about 52,000 compounds, about 1,700 (3.3%) were called active. No stated cut-off is given here; in the data, active means survival mostly below about 52% (no sharp cut-off); inactive means mostly above about 56%. This is one part of the list.

These compounds were tested on Wild type (assay: growth inhibition of S. aureus wild type versus tarO mutant, primary screen, teichoic acid synthesis inhibitors, RN4220, OD600 (AID 463173)). Conditions: S. aureus RN4220 wild type/DeltatarO growth, OD600, 18 h, active compounds read low, screened at 18.75 µg/mL (by protocol).
In the case of CC(C)(C)c1ccc(S(=O)(=O)NCc2nc3cccnc3n2Cc2ccccc2Cl)cc1, the survival is reported as active: 14%. For O=C(c1ccc(S(=O)(=O)N2CCOCC2)cc1)n1nnc2ccccc21, the survival was inactive: 110%. For Cc1ccc(CNS(=O)(=O)c2c(C)nc3scc(C)n3c2=O)cc1, the survival was inactive: 130%. With CC(C)c1ccccc1NC(=O)CN1C(=O)c2cccc3cccc1c23 the survival was inactive: 74%. O=C(CN1CCCCC1)N1CCc2ccccc21 was tested, and the survival was inactive: 110%. With Cc1nc(N2CCCC2)c2c(C(=O)N3CCN(c4cccc(C)c4C)CC3)c(C)oc2n1 the survival was inactive: 75%. CCC(=O)Nc1ccc2nc(SCc3ccc(C)cc3)sc2c1 was tested, and the survival was inactive: 92%. For O=C(CSc1nc(-c2ccccc2)[nH]c1-c1ccccc1)Nc1ccc2c(c1)OCCO2, the survival was inactive: 70%. Cc1ccc(Nc2cc(C)c(C#N)c3nc4ccccc4n23)cc1Cl was tested, and the survival was inactive: 87%. For NC(=O)c1ccc(N2CCCCC2)c(N2C(=O)C3CC=CCC3C2=O)c1 (stereo not drawn), the survival was inactive: 104%. With CCCSCCCNC(=O)c1ccc2c(c1)nc1n2CCCCC1 the survival was inactive: 69%. CN(CC(=O)Nc1ccccc1Cl)S(=O)(=O)c1ccc(C(=O)N2CCOCC2)s1 was tested, and the survival was inactive: 73%. For COc1ccc(S(=O)(=O)N2CCN(Cc3ccc4c(c3)OCO4)CC2)cc1OC, the survival was inactive: 78%. With CC(C)c1cc(-c2nc(-c3ccccc3)no2)n[nH]1 the survival was inactive: 71%. COCCNC(=O)c1nn(-c2ccc(Cl)cc2)nc1CO was tested, and the survival was inactive: 89%. In the case of COc1ccc(CNC(=O)c2cc3c(=O)n(C)c4ccccc4c3n2C)cc1, the survival is reported as inactive: 90%. With Cn1cnc(S(=O)(=O)N2CCC(C(=O)NCc3ccc(Cl)cc3)CC2)c1 the survival was inactive: 95%. With O=C(CSc1ccccc1)NCc1ccc2c(c1)CCN2C(=O)c1ccc(F)cc1 the survival was inactive: 79%. With O=C(Cc1ccccc1)N(Cc1cccnc1)c1nc2ccc(F)cc2s1 the survival was inactive: 91%. For CCc1ccc2oc(-c3ccc(NC(=O)c4cc(OC)c(OC)c(OC)c4)cc3)nc2c1, the survival was inactive: 71%. In the case of CCOC(=O)c1ccc(N2C(=O)c3[nH]nc(-c4ccc(OCC)cc4)c3C2c2ccc(OC)cc2OC)cc1 (stereo not drawn), the survival is reported as inactive: 118%. In the case of CCOc1cc(C2CC(=O)Nc3nc(SCc4ccccc4)[nH]c(=O)c32)ccc1O (stereo not drawn), the survival is reported as inactive: 106%. For CCc1ccc(CNC(=O)CCCN2C(=O)c3cccnc3Oc3ccc(Cl)cc32)cc1, the survival was inactive: 70%. For Cc1ccccc1-c1nnc(C2CCN(S(=O)(=O)c3ccc(Cl)cc3)CC2)o1, the survival was inactive: 88%. O=C(COc1ccccc1)Nc1nnc(S(=O)(=O)N2CCCCCC2)s1 was tested, and the survival was inactive: 84%. Cc1ccc2c(c1)N(C(=O)N1CCC(C(=O)NCc3cccs3)CC1)CC(C)O2 (stereo not drawn) was tested, and the survival was inactive: 85%. For COc1ccc(CNC(=O)c2cc3c(=O)[nH]c4ccccc4c3n2C)c(OC)c1, the survival was inactive: 76%. Cc1nn2c(=O)cc(COC(=O)C(c3ccccc3)c3ccccc3)nc2s1 was tested, and the survival was inactive: 72%. COc1ccc(CCNC(=O)CCCn2c(=O)c3ccccc3n(CC(=O)Nc3ccc(C)cc3Cl)c2=O)cc1OC was tested, and the survival was inactive: 134%. CC(NC(=O)CN1C(=O)COc2ccc(Cl)cc21)c1ccccc1 (stereo not drawn) was tested, and the survival was inactive: 127%. In the case of COc1ccc(Cl)cc1NC(=O)NCc1noc2ccccc12, the survival is reported as inactive: 77%. In the case of Cc1cccc(N(CC(=O)NCCSc2ccc(Cl)cc2)S(C)(=O)=O)c1C, the survival is reported as inactive: 60%. With Cc1ccc(-c2c(C(=O)N(C)Cc3ccccc3)oc(=O)c3ccccc23)cc1 the survival was active: 11%. In the case of COc1ccc(CSC(=N)N)cc1Cl, the survival is reported as inactive: 104%. For C/C(Cc1ccccc1)=N\NC(=O)c1cc(C(C)(C)C)[nH]n1, the survival was inactive: 106%. For Cc1ccc(NC(=O)C2CCN(C(=O)c3cnn(-c4ccccc4)c3-n3cccc3)CC2)cc1C, the survival was inactive: 84%. With CC(C)c1ccc(NC(=O)CCNS(=O)(=O)c2ccc3c(c2)oc(=O)n3C)cc1 the survival was inactive: 84%. For C=C(C)Cn1c(SCC(=O)Nc2cccc(C)c2)nc2sc3c(c2c1=O)CCCC3, the survival was inactive: 120%. COC(=O)c1nnn(-c2ccc(Cl)cc2)c1C(=O)OC was tested, and the survival was inactive: 130%. With O=C(CCS(=O)(=O)c1nc(-c2ccc3c(c2)OCO3)cc(C(F)(F)F)n1)Nc1ccc(F)cc1F the survival was inactive: 77%. CCS(=O)(=O)c1ncc(Cl)c(C(=O)Nc2c(C(=O)c3ccc(C)cc3)oc3ccccc23)n1 was tested, and the survival was inactive: 77%. In the case of Cc1ccc(-n2ncc(C(=O)N3CCN(C(=O)c4ccco4)CC3)c2C2CCN(C(=O)OC(C)(C)C)CC2)cc1, the survival is reported as inactive: 66%. With O=C(CN1CCCN(Cc2cccc(F)c2)S1(=O)=O)Nc1ccc2c(c1)OCCO2 the survival was inactive: 77%. O=C(NCC(c1cccnc1)N1CCc2ccccc2C1)C(=O)Nc1ccc(F)cc1F (stereo not drawn) was tested, and the survival was inactive: 104%. With Cc1cccc(-c2nc(C)c(CCNC(=O)c3cccs3)s2)c1 the survival was inactive: 66%. For COc1cccc(-c2cn3c(n2)sc2cc(C(=O)NCCC4=CCCCC4)ccc23)c1, the survival was inactive: 59%. For CCc1ccc2[nH]c(=O)c(CNCCO)cc2c1, the survival was inactive: 105%. O=C(CSc1oc(-c2ccc(F)cc2)nc1S(=O)(=O)c1ccc(Cl)cc1)c1ccccc1 was tested, and the survival was inactive: 63%. For Cc1cccc(CCNC(=O)c2nn(C)c3c2CSc2ccccc2-3)c1, the survival was inactive: 87%. In the case of O=C(c1ccc2c(c1)N(Cc1cccc(Cl)c1)C(=O)c1ccccc1S2(=O)=O)N1CCCCCC1, the survival is reported as inactive: 73%. With CCOc1ccc(CN(C(=O)c2cc(=O)c3cc(Cl)ccc3o2)C2CCS(=O)(=O)C2)cc1 (stereo not drawn) the survival was inactive: 112%. In the case of CCCCOC(=O)c1c(C)oc2ccc(NS(=O)(=O)c3ccc(F)cc3C)cc12, the survival is reported as active: 1%. In the case of CCc1ccc(CNc2ncnc3onc(-c4ccc(Cl)cc4)c23)cc1, the survival is reported as inactive: 48%. With Clc1ncnc2sc3c(c12)CCCC3 the survival was inactive: 108%. With COc1ccc(N2CCN(C(CNC(=O)c3cccc(OC)c3)c3cccnc3)CC2)cc1 (stereo not drawn) the survival was inactive: 82%. COc1ccc(-c2cc(C(F)(F)F)n3nc(C(=O)Nc4sc5c(c4C(=O)OC(C)C)CCCC5)cc3n2)cc1OC was tested, and the survival was inactive: 140%. With CCN(CC)C(=O)C1CCN(c2cc(C)nc3c(-c4ccc(OC)c(OC)c4)c(C)nn23)CC1 the survival was inactive: 96%. CCCCNC(=O)CSC1=Nc2ccccc2C2=NC(CCC(=O)NCc3ccccc3OC)C(=O)N12 (stereo not drawn) was tested, and the survival was active: -2%. COc1ccc(NC(=O)Cn2c(=O)n(-c3ccc(C)c(C)c3)c(=O)c3c4c(sc32)CCCCC4)cc1Cl was tested, and the survival was inactive: 94%. With CCc1ccc(NC(=O)CSc2cn(CC(=O)N3CCOCC3)c3ccccc23)cc1 the survival was inactive: 98%. In the case of Cn1c(C(=O)N2CCCC(C(=O)N3CCN(c4ccccc4)CC3)C2)cc2sccc21 (stereo not drawn), the survival is reported as inactive: 79%. In the case of COc1ccc(CCNC(=O)c2cc(=O)c3c(C)cc(C)cc3o2)cc1OC, the survival is reported as inactive: 82%. CC(CC(=O)NCc1ccc(Cl)cc1Cl)CC1=NS(=O)(=O)c2ccccc2N1 (stereo not drawn) was tested, and the survival was inactive: 128%. With Cc1ccc(/C=C/c2nc3ccccc3n2S(=O)(=O)c2cccc(Cl)c2)cc1 the survival was inactive: 73%. With COc1cc2c(cc1OC)n(CC(=O)Nc1ccccc1)c(=O)n1nc(-c3ccccc3)nc21 the survival was inactive: 77%. With O=C(CCn1c(=O)c2cccn2c2cccnc21)NCc1ccc(Cl)cc1 the survival was inactive: 90%. With COC(=O)c1ccc(NC(=O)C(=O)NCCc2sc3nc(-c4ccc(OC)cc4)nn3c2C)cc1 the survival was inactive: 70%. In the case of COc1ccccc1NC(=O)C1=C(C)Nc2c(C(=O)Nc3cccc(C)c3)cnn2C1c1ccccc1C (stereo not drawn), the survival is reported as inactive: 69%. For CCOC(=O)c1ccc(NC(=O)Cn2cc(C(=O)c3cccs3)c3ccccc32)cc1, the survival was inactive: 75%. With Cc1cccc(OC(=O)c2nc(SCc3ccccc3F)ncc2Cl)c1 the survival was inactive: 103%. With Cc1nc2ccn(Cc3cccs3)c(=O)c2cc1C(=O)NCc1ccc(Cl)cc1 the survival was inactive: 22%. COc1cc2nc(Nc3ccc(C)c(C)c3)nc(N)c2cc1OC was tested, and the survival was inactive: 81%. Cc1ccc(Nc2nc3c(S(=O)(=O)c4ccccc4)nnn3c3ccc(Cl)cc23)c(C)c1 was tested, and the survival was inactive: 153%. For CCCN(CCC)CCCNC(=O)c1sc2nc3n(c(=O)c2c1C)CCC3, the survival was inactive: 86%. In the case of Oc1cccc(-c2nc(-c3cccs3)c(-c3cccs3)[nH]2)c1, the survival is reported as active: 3%. With Cc1ccccc1OCCSc1nnc(-c2ccc([N+](=O)[O-])cc2)o1 the survival was inactive: 111%. For O=C(c1ccc2c(c1)N(Cc1cccc(Cl)c1)C(=O)c1ccccc1S2(=O)=O)N1CCN(Cc2ccccc2)CC1, the survival was inactive: 83%. With CCc1cc2c(cc3c(=O)n(CC(=O)NC(C)C)nc(CC)n32)s1 the survival was inactive: 71%. For COc1ccc(CNC(=O)CSCc2ccc(C)cc2)c(OC)c1, the survival was inactive: 47%. In the case of COc1ccccc1NC(=O)c1cc2c(n(-c3ccc(C)cc3)c1=O)CC(C)(C)CC2=O, the survival is reported as inactive: 70%. With CCCn1cnc2sc3c(c2c1=O)CCCC3 the survival was inactive: 107%. In the case of CC1(C)CC(n2c(=O)c3c(n4cnnc24)-c2ccccc2CC32CCCCC2)CCO1 (stereo not drawn), the survival is reported as inactive: 102%. With CCC1CCCCN1CCCNC(=O)c1sc2nc(C)cc(C)c2c1-n1cccc1 (stereo not drawn) the survival was inactive: 90%. In the case of Cc1ccc(NS(=O)(=O)c2ccc(-c3cc(C)no3)cc2)c(C)c1, the survival is reported as inactive: 101%. In the case of COc1ccc(CNC(=O)Cn2c(=O)n3nc(-c4cccc(F)c4)nc3c3ccccc32)cc1OC, the survival is reported as inactive: 84%. For O=C(CSC1=NC(c2ccco2)CC(C(F)(F)F)N1)NCc1ccc(F)cc1 (stereo not drawn), the survival was inactive: 102%. COc1ccc(OC)c(NS(=O)(=O)c2ccc3c(c2)CCCN3C(=O)C2CCC2)c1 was tested, and the survival was inactive: 71%. CCc1cc(=O)oc2c(C)c3c(cc12)CN(CCc1ccccc1)CO3 was tested, and the survival was inactive: 91%.
